Test results as given in PubChem BioAssay AID488969 (Vanderbilt High Throughput Screening Facility, 2010).
Over roughly 110,000 compounds, “z-score” has its median near -0.1; the highest 2% begin near 2. The list shows a part of the results. The source made the active and inactive calls.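 The calls were made as follows: active = z-score in the third read window above 3 or below -3; inactive = the rest.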

biological target: Metabotropic glutamate receptor 8 (Rattus norvegicus) (UniProt P70579); assay: mGluR8 Gi/Go-coupled signaling modulation – cell-based, rat, thallium flux, HTS, primary screen (AID 488969); conditions: HEK293 rat mGluR8, GIRK (G protein-gated inwardly rectifying potassium channel) thallium flux, FluoZin2; at 10 µM; stronger effect = higher value; submaximal glutamate (EC20) added with thallium
Sequence of UniProt P70579 (P70579 whole entry, looked up): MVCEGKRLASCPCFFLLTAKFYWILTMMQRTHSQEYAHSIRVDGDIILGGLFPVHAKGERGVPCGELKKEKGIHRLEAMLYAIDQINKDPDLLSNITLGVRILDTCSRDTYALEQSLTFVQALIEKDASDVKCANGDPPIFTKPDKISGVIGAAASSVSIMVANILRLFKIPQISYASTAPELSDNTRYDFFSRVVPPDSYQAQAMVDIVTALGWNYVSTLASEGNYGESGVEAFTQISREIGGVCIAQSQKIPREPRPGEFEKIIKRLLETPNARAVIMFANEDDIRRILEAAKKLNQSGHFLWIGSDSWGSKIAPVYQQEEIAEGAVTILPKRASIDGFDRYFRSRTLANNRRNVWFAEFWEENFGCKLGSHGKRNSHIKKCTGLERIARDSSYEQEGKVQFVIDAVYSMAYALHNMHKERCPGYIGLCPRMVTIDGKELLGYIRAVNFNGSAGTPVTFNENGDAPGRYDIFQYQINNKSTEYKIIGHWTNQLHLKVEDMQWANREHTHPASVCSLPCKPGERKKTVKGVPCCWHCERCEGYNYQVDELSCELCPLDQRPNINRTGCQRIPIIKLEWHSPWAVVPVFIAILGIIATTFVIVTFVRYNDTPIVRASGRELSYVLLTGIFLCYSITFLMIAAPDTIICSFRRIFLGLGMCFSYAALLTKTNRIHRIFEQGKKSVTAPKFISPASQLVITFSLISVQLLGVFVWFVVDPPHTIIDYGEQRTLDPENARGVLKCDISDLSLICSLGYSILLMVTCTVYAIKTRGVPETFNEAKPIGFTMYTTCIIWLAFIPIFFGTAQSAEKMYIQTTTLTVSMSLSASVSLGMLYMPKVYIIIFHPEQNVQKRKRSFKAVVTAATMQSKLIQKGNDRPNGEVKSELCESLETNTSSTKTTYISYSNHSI

SMILES | z-score
CCCS(=O)(=O)c1nc(S(=O)(=O)c2ccc(C)cc2)c(NCc2ccco2)s1 | -0.497
COCCCNc1nc2c(c(=O)[nH]c(=O)n2C)n1CC(O)COc1cccc(C)c1 (stereo unspecified) | -0.438
COc1ccc(CCN2CC(C(=O)O)CC2=O)cc1 (stereo unspecified) | -0.116
COc1cc(C(=O)Nc2cccc(-c3nc4cc(C)ccc4o3)c2C)cc(OC)c1OC | -0.257
CCCCCCCC(=O)NC(Nc1ccccc1OC)C(Cl)(Cl)Cl (stereo unspecified) | 0.0752
CC1CCc2sc(C(=O)N/N=C/C3CCCCC3)cc2C1 (stereo unspecified) | -0.764
COCCCNC(=O)C(=O)N/N=C/c1ccc(OCC(=O)Nc2cccc(Cl)c2C)c(OC)c1 | -0.14
CCc1nnc(NC(=O)CCC(=O)NC2CCCCC2)s1 | -0.00318
CCN1C(=O)CC(Sc2ccccc2C(=O)O)C1=O (stereo unspecified) | -0.229
COc1ccc(NC(=O)CC(C(=O)O)N2CCCCC2)cc1 (stereo unspecified) | -0.185
CCC(Oc1ccccc1)C(=O)Nc1nc2ccccc2[nH]1 (stereo unspecified) | 0.681
COc1ccc(NC(=O)c2ccc(NS(=O)(=O)c3c(C)noc3C)cc2)cc1OC | -0.245
CCC(C)n1cnc2c(c1=O)c1nc3ccccc3nc1n2Cc1ccc(OC)cc1 (stereo unspecified) | -0.0767
COC(=O)c1cccc(NC(=O)CSc2ncn[nH]2)c1 | -0.00365
N#Cc1cc(NC2CCCC2)c([N+](=O)[O-])cc1C#N | -0.261
COc1ccc(C(=O)NC(=S)NC2CCSC2=O)cc1 (stereo unspecified) | -0.163
COc1ccccc1N(Cc1cc2cccc(C)c2[nH]c1=O)C(=O)C(C)C | 0.249
CSc1oc(-c2ccccc2)nc1S(=O)(=O)c1ccc(F)cc1 | -1.79
CCS(=O)(=O)Nc1ccc(C(=O)c2ccccc2)cc1 | 0.395
Cc1cc(OCCCn2ccnc2)ccc1C(C)C | -0.0779
CCOC(=O)c1c(C(F)(F)C(F)(F)C(F)(F)C(F)(F)F)n[nH]c1C | -1.38
O=C(C1CC(c2ccccc2O)=NO1)N1CCCCC1 (stereo unspecified) | -0.227
COc1ccc(NC(=O)CCC2COc3ccccc3O2)c(OC)c1 (stereo unspecified) | -0.077
COc1cccc(C(=O)NCc2ccc(-c3nc4ccccc4s3)cc2)c1 | -0.00857

SMILES | z-score
O=C(O)c1ccc2c(=O)n3c(nc2c1)/C(=C/c1cccc(Cl)c1Cl)CCCC3 | -0.312
COc1cc(NC(=O)C2CCCN2C(=O)C2CCC(C)CC2)cc(OC)c1OC (stereo unspecified) | 0.546
O=C(CCN1CCCCC1)c1ccccc1 | -0.426
CCOC(=O)Nc1ccc(C)cc1NC(=O)OCC | 0.103
CC(C)(C)C(=O)Nc1ccc(S(=O)(=O)c2ccc(NC(=O)C(C)(C)C)cc2)cc1 | 0.254
Cc1c(NC(=O)Nc2ccc(Cl)c(Cl)c2)sc(=S)n1C | 0.371
CCC(CC)c1nnc(NC(=O)C2COc3ccccc3O2)s1 (stereo unspecified) | active: 3.82
CCn1c2ccccc2c2cc(NS(=O)(=O)c3ccc(C)cc3)ccc21 | -0.244
COc1ccc(NC(=O)c2ccccc2NS(C)(=O)=O)cc1OC | 0.00676
O=C(C(Cc1ccccc1)N1C(=O)c2ccccc2C1=O)N1CCc2ccccc21 (stereo unspecified) | -0.00701
CCCc1c(C)c2cc(C)ccc2[nH]c1=O | -1.09
COCc1nnc(NC(=O)c2ccc(NC(=O)C(C)C)cc2)s1 | -0.0999
Cc1onc(-c2ccccc2Cl)c1C(=O)Nc1ccccc1N1CCOCC1 | -0.0396
O=C1CC(C(=O)N(c2ccc(F)cc2)C(C(=O)NC2CCCC2)c2ccccn2)CS1 (stereo unspecified) | 0.0588
Cc1ccc(S(=O)(=O)c2nc(NCc3ccc4c(c3)OCO4)sc2Cl)cc1 | -0.124
O=C(Nc1ccccc1F)c1ccncc1 | -0.212
Cc1cc(=O)n(C)c(=O)n1CC(=O)N1CCCCCC1 | 0.975
CCOc1ccc(NC(=O)N2CCC(NC(=O)C(Cc3ccc(OC)c(OC)c3)NC(C)=O)CC2)cc1 (stereo unspecified) | -0.0478
CCCC(=O)NCCc1cc(OC)c(OC)cc1Br | 0.142
Cc1nc2ccccc2c(=O)n1NC(=O)Cc1ccccc1 | -0.647
C/C=C/CSc1nc2c(c(=O)[nH]c(=O)n2C)n1CCC | -0.0886
CN(C)CCCNS(=O)(=O)c1ccc(Oc2ncc(C(F)(F)F)cc2Cl)cc1 | 0.269
CCN(CC)S(=O)(=O)c1cc(C(=O)Nc2cccnc2)ccc1Cl | -0.586
Cc1ccc(OC(C)C(=O)N2CCc3ccccc32)cc1 (stereo unspecified) | 0.303

SMILES | z-score
O=C(Nc1cc2c3c(c1)C1CCCC1CN3CC1CCCC21)c1ccccc1 (stereo unspecified) | 0.78
Cc1nc(CS(=O)(=O)c2ccccc2)cc(Sc2ccccc2Cl)n1 | 0.313
COCCn1c(-c2ccc(Cl)cc2)nc2c(c(=O)c3ccccc3n2C)c1=O | -0.92
COc1ccc(-c2cc(C(=O)NCc3ccc(Cl)cc3)no2)cc1OC | 0.149
CCOc1ccc(C(C)(O)CN2CCOCC2)cc1 (stereo unspecified) | -0.692
O=C(NCCCN1CCN(CCCNC(=O)c2ccccc2F)CC1)c1ccccc1F | 0.0387
Cn1ncc2c(NNC(=O)Cc3cccc4ccccc34)ncnc21 | -0.0819
O=c1[nH]c(SCc2ccccc2Cl)nc2c1CCC2 | -0.568
Cc1ccc(-c2nnn(CC(=O)N3CCCCC3)n2)c(-n2cnnn2)c1 | active: 3.32
CC1CCN(C(=O)c2ccc(NS(C)(=O)=O)cc2)CC1 | 0.157
CCOC(=O)c1cn(CC(=O)Nc2ccc(C(C)C)cc2)nn1 | -0.235
Cc1ccc(C(=O)Nc2ccon2)cc1S(=O)(=O)N1CCCC1 | -0.0785
O=C1c2ccccc2C(=O)N1Cc1nc2ccccc2o1 | 1.7
CCC(=O)N1CCN(c2ccccc2NC(=O)c2cccc(C)c2)CC1 | -0.35
COc1cc(/C=C(\C#N)C(=O)c2c(C)[nH]c3ccccc23)cc(OC)c1OC | -0.563
COc1ccc(C(=O)NCCc2cn3ccc(C)cc3n2)cc1 | -0.495
COc1ccc(NC(=O)C(NC(=O)OC(C)(C)C)C(C)OCc2ccccc2)cc1 (stereo unspecified) | -0.288
O=C(CN1C(=O)C2CCCN2C(=O)c2ccccc21)Nc1ccccc1-n1cccc1 (stereo unspecified) | 0.267
CCOC(=O)N1CCC(n2c(SCC(=O)N3CCCC3)nc3ccccc3c2=O)CC1 | -0.306
Cc1ccc(C(=O)NCC(=O)OCC(=O)c2ccc3c(c2)OCCO3)cc1C | -0.0917
CN(Cc1ccccc1)C(=O)CCSc1nc(-c2ccc3c(c2)OCO3)cc(C(F)(F)F)n1 | -0.301
CCC(=O)Nc1ccc(C(=O)Nc2ccc3c(c2)C(=O)N(CC2CCCO2)C3=O)cc1 (stereo unspecified) | 0.274
Cc1ccc2nc(NCCCNC(=O)c3cnccn3)c(C#N)cc2c1 | 0.37
